# Reference: PubChem BioAssay AID1347430 (National Center for Advancing Translational Sciences (NCATS), 2020)
# Among all 91,000 compounds or so, about 130 (0.14%) were called active. Inconclusive results, whose numbers are uncertain, are shown with a selection of clear calls. Calls come from the whole dose curve; as a rule, active = well fitted inhibition curve with a large enough effect; inconclusive = small, poorly fitted or top-dose-only effect; inactive = flat fitted curve, though single readings scatter. Potencies of inconclusive entries are doubtful fits and often do not repeat.
# Test system: Uracil-DNA glycosylase
# Assay: Primary qHTS assay for inhibitors of Activation Induced Cytidine Deaminase (AID): UDG Counterscreen signal; note: nearly all actives have a fitted effect of over 65% in size
# Settings: FRET deamination/UDG coupled assay, UDG read, 4 h; activity change, negative = inhibition: at 115 µM (top of the series)
# % is set by controls: 0 for no effect and ±100 for the full control effect; potency is the fitted concentration of half-maximal effect; tags give direction and shape of the fitted curve.
Structure (SMILES),"activity change, negative = inhibition",Potency
Cc1ccc2[nH]cc(C(c3ccccc3)c3ccc(Cl)s3)c2c1 (configuration not stated),inactive: -3.7%,–
CN1C(=O)c2ccccc2Sc2ccc(NC(=O)N3CCN(c4ccc(F)cc4)CC3)cc21,–,"inconclusive: 79.4 µM [inhibitor, single point]"
Oc1ccc(NCc2ccccc2OCc2ccccc2)cc1,–,active: 79.4 µM
COc1ccc(C(=O)NCCc2csc(-c3ccc(Cl)cc3)n2)c(OC)c1,–,"inconclusive: 79.4 µM [inhibitor, partial curve, poor fit]"
COc1ccc(C)cc1-n1nnc(S(=O)(=O)c2ccc(C)cc2)c1C,–,"inconclusive: 100 µM [inhibitor, partial curve, poor fit]"
COc1ccc2c(C)c(CCC(=O)NCc3ccccc3OC)c(=O)oc2c1,–,"inconclusive: 100 µM [inhibitor, single point]"
O=S(=O)(NCc1nc2ccccc2s1)c1cccs1,inactive: -3.35%,–
O=C(COC(=O)c1cc(-c2ccccc2)nc2ccccc12)NC1CC1,–,"inconclusive: 79.4 µM [inhibitor, single point]"
Fc1ccc(-c2csc(=Nc3cccc(C(F)(F)F)c3)n2Cc2ccc3c(c2)OCO3)cc1,–,"inconclusive: 89.1 µM [inhibitor, partial curve, poor fit]"
CCOC(=O)c1c(S(=O)(=O)NCC(=O)Nc2ccc(C(C)=O)cc2)c(C)n(C)c1C,–,"inconclusive: 79.4 µM [inhibitor, partial curve, poor fit]"
COc1ccc(N2CC(NC(=O)C3CC3)CC2=O)cc1 (configuration not stated),–,"inconclusive: 89.1 µM [inhibitor, single point]"
COc1cccc(N2CCN(C(=O)CCS(=O)(=O)c3ccc4c(c3)CC(=O)N4C)CC2)c1,–,"inconclusive: 89.1 µM [inhibitor, partial curve, poor fit]"
CC(=O)Nc1ccc(S(=O)(=O)NCC2CCC(C(=O)NCc3ccccc3)CC2)cc1 (configuration not stated),inactive: -10.4% [at 57.5 µM],–
COc1ccc(CC(=O)NC(C)c2nnc(SCC(=O)c3ccc(OC)cc3)n2C)cc1 (configuration not stated),–,"inconclusive: 89.1 µM [inhibitor, single point]"
Oc1ccccc1-c1nc(/C=C/c2ccccc2Cl)no1,–,"inconclusive: 100 µM [inhibitor, single point]"
COc1ccccc1OCCCn1c(C2CC(=O)N(c3ccccc3Cl)C2)nc2ccccc21 (configuration not stated),–,"inconclusive: 89.1 µM [inhibitor, single point]"
O=C(/C=C/c1ccc(O)cc1)c1ccsc1,inactive: -3.42%,–
Cc1cccc(NC(=O)Cn2c(=O)n(Cc3ccc(C(=O)NCc4ccc5c(c4)OCO5)cc3)c(=O)c3ccccc32)c1,inactive: -3.1%,–
Cc1ccccc1Cn1c(CCCNC(=O)C2CCCCC2)nc2ccccc21,–,"inconclusive: 89.1 µM [inhibitor, partial curve, poor fit]"
COc1ccc(CCN2C(=O)N(c3ccc(F)cc3)C(=O)C2CC(=O)Nc2ccccc2)cc1 (configuration not stated),–,"inconclusive: 89.1 µM [inhibitor, single point]"
COc1ccccc1CNC(=O)Cn1c(=O)oc2cc(S(=O)(=O)N3CCC(C)CC3)ccc21,–,"inconclusive: 89.1 µM [inhibitor, partial curve, poor fit]"

Structure (SMILES),"activity change, negative = inhibition",Potency
CCC(Nc1ccc(-c2nc(-c3ccco3)no2)cc1[N+](=O)[O-])c1ccccc1 (configuration not stated),–,"inconclusive: 89.1 µM [inhibitor, single point]"
COc1cccc(Cn2c(=O)n(-c3cccc(Cl)c3C)c(=O)c3c4c(sc32)CN(C(C)=O)CC4)c1,–,"inconclusive: 89.1 µM [inhibitor, partial curve, poor fit]"
Cc1ccccc1Nc1nc(CSc2nnnn2C2CC2)cs1,inactive: -6.62%,–
CCCCN1CC(c2nc3ccccc3n2CCCCOc2c(C)cccc2C)CC1=O (configuration not stated),–,"inconclusive: 89.1 µM [inhibitor, partial curve, poor fit]"
Cc1cccc(C(=O)Nc2ccccc2-c2nc(-c3ccccc3)no2)c1,–,"inconclusive: 89.1 µM [inhibitor, single point]"
COc1ccc(NC(=O)N2CCc3c(sc4c3CCCC4)C2c2ccc(F)cc2)cc1 (configuration not stated),–,"inconclusive: 11.2 µM [inhibitor, full curve, poor fit]"
COc1ccc(-n2cc3c(c2-c2cccc(Br)c2)c(=O)n(C)c(=O)n3C)cc1OC,–,"inconclusive: 35.5 µM [inhibitor, full curve, poor fit]"
Cc1ccccc1NC(=O)Nc1nnc(N(C)Cc2ccccc2)s1,–,"inconclusive: 56.2 µM [inhibitor, partial curve, poor fit]"
O=C(CC1N=C2c3ccccc3N=C(SCc3ccccc3Cl)N2C1=O)NC1CCCCC1 (configuration not stated),–,active: 89.1 µM
O=C(COC(=O)c1cc(-c2cccs2)nc2ccccc12)c1ccc(Cl)cc1,–,"inconclusive: 100 µM [inhibitor, partial curve, poor fit]"
O=C(Nc1cccnc1N1CCCC1)N1CCN(c2cnccn2)CC1,inactive: -1.84%,–
CCOC(=O)c1c(S(=O)(=O)NCC(=O)NCc2ccccc2Cl)c(C)n(C)c1C,–,"inconclusive: 100 µM [inhibitor, single point]"
Cc1cccc(C(=O)NC(C)c2cccs2)c1I (configuration not stated),inactive: -8.15%,–
COc1ccc(C2=Nc3ccc(OC(F)(F)F)cc3NC(c3cccnc3)=N2)cc1,–,"inconclusive: 56.2 µM [inhibitor, partial curve, poor fit]"
Oc1ccc(N=Cc2ccc3ccccc3c2)cc1,–,"inconclusive: 10 µM [inhibitor, full curve]"
CC(C)(CC(=O)OCC(=O)Nc1ccccc1F)CC1=NS(=O)(=O)c2ccccc2N1,inactive: 3.56%,–
N[n+]1cccc2ccccc21,–,active: 1 µM
NNc1ccccc1Br,inactive: -5.14%,–
CCCCNc1nc(Oc2ccc(=O)n(-c3ccccc3)n2)nc(N(CC)CC)n1,–,"inconclusive: 89.1 µM [inhibitor, partial curve, poor fit]"
Cc1ccc(-c2nc(CCNc3ncccc3C#N)co2)cc1,inactive: -2.32%,–
COc1ccc(NC(=O)Cn2nc(-c3ccccc3)c3cnc4ccc(C)cc4c32)cc1,–,"inconclusive: 79.4 µM [inhibitor, partial curve, poor fit]"
